Assay results as given in the supplement of paper PMC3334620.
In all, about 33,000 sequences were measured (“E-score (-0.5 to 0.5)”: median about -0.035, highest 2% from about 0.34 on). The list shows a part of the results.

biological target: T1, Mot3 (UniProt P54785); assay: PBM E-score (8-mer binding enrichment) (E-score (-0.5 to 0.5)); higher = stronger / more preferred TF binding; most listed sequences are background and not binding sites; settings: protein concentration: 200 nM; construct: GST-full length
T1 sequence: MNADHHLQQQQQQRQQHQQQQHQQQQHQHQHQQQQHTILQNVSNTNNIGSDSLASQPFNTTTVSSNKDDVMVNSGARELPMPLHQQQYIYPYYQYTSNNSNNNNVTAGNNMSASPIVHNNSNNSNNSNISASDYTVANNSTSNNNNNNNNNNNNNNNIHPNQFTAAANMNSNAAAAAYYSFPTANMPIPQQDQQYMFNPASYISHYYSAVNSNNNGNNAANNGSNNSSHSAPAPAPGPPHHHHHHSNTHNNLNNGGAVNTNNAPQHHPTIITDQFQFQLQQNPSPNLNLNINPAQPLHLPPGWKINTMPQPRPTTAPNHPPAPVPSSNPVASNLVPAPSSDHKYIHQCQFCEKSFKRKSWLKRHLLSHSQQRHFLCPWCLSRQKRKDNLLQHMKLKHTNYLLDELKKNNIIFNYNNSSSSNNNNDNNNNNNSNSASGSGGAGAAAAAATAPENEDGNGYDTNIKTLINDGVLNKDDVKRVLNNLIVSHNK
How it was run: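 PURExpress in vitro transcription/translation supplied GST-tagged yeast transcription factors, either full-length or DNA-binding domain. Applied at about 100-200 nM to universal all-10-mer Agilent arrays double-stranded by primer extension, the bound protein was detected with fluorescent anti-GST. E-scores, modified Wilcoxon-Mann-Whitney statistics, were given by the Universal PBM Analysis Suite to ungapped eight-base words pooled with their reverse complements after masliner normalisation.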

Row | Sequence | PBM E-score
1 | ACATTGCA | 0.0621
2 | CATGAAGC | -0.00504
3 | AACGCCCG | -0.172
4 | CCCCGAGG | -0.0759
5 | CGGTTAGA | -0.296
6 | CGTACGTC | 0.00931
7 | AAATAGAC | -0.133
8 | GTACCATA | 0.0521
9 | AGAGGTTG | -0.223
10 | CCGTCCGC | -0.167
11 | GATGAGAA | -0.137
12 | AAGCAACA | 0.151
13 | CAGGGTGC | -0.0572
14 | ATAAAGCG | 0.038
15 | AGTTCGCG | -0.0658
16 | ACTCACAC | -0.183
17 | AACAGAGG | 0.0836
18 | GTCCAAAC | -0.263
19 | ATGGTTGG | -0.25
20 | AGTAATGG | 0.0543
21 | GAACCTTA | 0.0894
22 | ATTTCGTG | 0.149
23 | AGGACCCG | -0.162
24 | GCAGGGAA | -0.0328
25 | CTTGTAAA | 0.378

Row | Sequence | PBM E-score
26 | CGCCAACA | -0.0349
27 | CTTCTACA | 0.258
28 | GGGGAGGA | -0.263
29 | AAAACCGT | 0.186
30 | AGCTTCCT | 0.018
31 | AATCGGAA | 0.0377
32 | CAGTAGTA | 0.181
33 | GAGTATCA | -0.116
34 | TCGCATCA | -0.242
35 | ATGATCAG | -0.163
36 | ACAATTCT | 0.117
37 | AAGTGCTC | -0.203
38 | CTCAGTGA | -0.0788
39 | GCTGTAGA | 0.0495
40 | ACCACCAA | -0.249
41 | ATGTGAAA | 0.0925
42 | CAGCCCTA | 0.124
43 | AATATATA | 0.0998
44 | ATTTGTAA | 0.244
45 | TCGTCCCA | -0.188
46 | ATAGCCGA | -0.0322
47 | AACGCAGT | -0.0115
48 | CTAACAGC | -0.149
49 | GGGATCTA | -0.0653
50 | GGGTTCAC | -0.292

Row | Sequence | PBM E-score
51 | GAGTATCC | -0.222
52 | ATGCTGTA | 0.15
53 | CATAGACC | -0.0425
54 | AACCCGAG | -0.163
55 | CTCGCCGC | -0.0814
56 | CGTAGAGA | -0.0324
57 | GCCCTCAA | -0.11
58 | CTGTCGTA | 0.145
59 | ACCGGAGA | -0.19
60 | GGTCCCTA | -0.0611
61 | CGATATAC | -0.0314
62 | CGCGTTGA | 0.256
63 | CCGAAGAC | -0.306
64 | GGAAGCCC | -0.357
65 | ATCCAGGC | -0.0601
66 | CTCTAGCC | -0.163
67 | CAATTCGC | -0.00079
68 | GTAAGAGA | 0.0699
69 | CTGGGTTC | -0.0708
70 | AGGAGACA | 0.0581
71 | ACCTTTAT | 0.0883
72 | GCGTACCC | -0.197
73 | GTAGGTTA | 0.22
74 | GTCTAAGA | 0.0261
75 | GGCGGAGA | -0.166

Row | Sequence | PBM E-score
76 | GCATCGGC | -0.132
77 | ATCCACGC | -0.101
78 | GTTTTACA | 0.371
79 | CTCTATTC | -0.239
80 | GTAATGAC | 0.221
81 | CTTCTCAA | -0.0894
82 | ACGTGCTA | 0.199
83 | CACTGCGA | -0.18
84 | CGGGTGCC | 0.0693
85 | ATGGCACC | -0.214
86 | AGTTTTAC | 0.257
87 | CTTGACCA | -0.0229
88 | CGCGTTGC | 0.253
89 | ACGTGGTG | -0.0374
90 | GGGGGTCA | -0.383
91 | TGTTTGAA | 0.106
92 | AGAATTCG | -0.0852
93 | GGCCCCGA | -0.174
94 | GAACCAGA | 0.0364
95 | AGATAGAG | 0.0208
96 | CAAGTTCC | 0.201
97 | AAGTAGCG | -0.169
98 | CGGTCAAG | -0.188
99 | ACTGTAAC | 0.177
100 | ACGCATCA | 0.141

Row | Sequence | PBM E-score
101 | CAGTTGAA | -0.0189
102 | AAAAGGGA | -0.0997
103 | GTATACCA | -0.0785
104 | AAACACTA | 0.144
105 | GACGCGTC | 0.0366
106 | CGGCTAAA | -0.0522
107 | AGGATGCG | -0.114
108 | ACTAGAAG | 0.0479
109 | GTTCCGTA | 0.0962
110 | AACATGCG | 0.307
111 | CCTAACGA | 0.0291
112 | AAAAAGAT | 0.0672
113 | AGGAAGTA | -0.159
114 | CTCCCCGC | 0.0369
115 | ACCGGTAG | -0.102
116 | AAACATGA | 0.327
117 | TCTCTTAA | 0.184
118 | CTTCGCAA | -0.0628
119 | GGGCCATA | -0.339
120 | TATAGCGA | 0.0325
121 | ACGGATAC | 0.0994
122 | CTTTGACA | 0.165
123 | CACCAGCC | -0.159
124 | AGTGTCCC | -0.237
125 | GCTCATAA | -0.0817

Row | Sequence | PBM E-score
126 | ATCAGGTC | -0.0881
127 | AATAATCG | 0.187
128 | AAAGTGGC | -0.201
129 | GATGGGTA | -0.0309
130 | ATGCTCGA | -0.161
131 | ATGATAAT | 0.152
132 | CCGTCCCA | -0.237
133 | CACAAGTC | -0.137
134 | GGCCTGGA | -0.274
135 | CGTTGACA | 0.0924
136 | GAAAGAAC | -0.0119
137 | ACGGGGAC | -0.198
138 | AGCTTTAC | 0.153
139 | AGGAAGAA | -0.0203
140 | ACCGCGGA | -0.245
141 | AGATAACC | 0.00955
142 | ACTACCAA | -0.0391
143 | AGTGAGAG | -0.126
144 | CAGAGACG | -0.059
145 | GCCCAGCA | -0.192
146 | AGTTATAG | 0.162
147 | CCCAGGCC | -0.191
148 | AGCTCGAC | -0.0623
149 | ATTACCTA | 0.332
150 | GCGACTAA | 0.0862

Row | Sequence | PBM E-score
151 | CGGTTGTC | 0.00851
152 | ATATCTAC | 0.171
153 | GCCTGTAA | 0.391
154 | ATCTTCCA | -0.0147
155 | CTTGGCCA | -0.239
156 | CGGGTAGC | -0.213
157 | ATATAGCC | 0.117
158 | ACGTTTGA | 0.0848
159 | CTTGGCAC | -0.0521
160 | GCCAGAAC | -0.112
161 | GGTACCTA | 0.424
162 | CGATTAGA | -0.211
163 | ATCAGATA | 0.0452
164 | CGGATAGA | 0.0854
165 | GTGGTGGA | -0.0887
166 | CCCACAGA | -0.053
167 | ATCTTAGG | -0.0614
168 | AACCTCGT | 0.146
169 | AGACTAGG | -0.164
170 | TCTATACA | 0.179
171 | CAAGCGTG | -0.0248
172 | GACTAAAC | 0.0174
